ChEMBL document CHEMBL1201862, “PubChem BioAssay data set” (2004)
Structures can show the parent of a compound that is named as a salt.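 Five concentrations, 48 hours, 96-well plates. At the GI50, growth is halved.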 Activity calls are given as the source filed them. Cut-off read from the data, not from the text of the source: active = GI50 up to about 1.1 µM and inactive = higher.

tested on: NCI-H322M; experiment: NCI-60 cell line screen, 48 h

SMILES	GI50
COc1cc(OC)c(/C=C/c2cnc3ccccc3n2)c(OC)c1	inactive: > 10 µM
CC/N=C(/C#N)NCC	inactive: > 100 µM
COc1ccc(P2(=S)Oc3ccc(C(c4ccccc4)(c4ccccc4)c4ccccc4)cc3O2)cc1 (stereo not drawn)	inactive: 14.9 µM
NC1=C(O)c2cccc3cccc(c23)C1=O	inactive: > 100 µM
SC1=NNC2(C(Cl)=N1)c1ccccc1-c1ccccc12	inactive: > 10 µM
C=C[C@]1(O)CCC[C@]2(C)C(=O)CCC12C (stereo partly drawn)	inactive: 86.7 µM
COc1ccccc1C(=O)c1c(NCc2ccccc2)c(=O)c1=O	inactive: > 100 µM
CC1(C)COC(c2cccc(C(O)c3ccc(Cl)cc3)c2)=N1 (stereo not drawn)	inactive: 45.9 µM
CSC(=NC1=NC(C(F)(F)F)(C(F)(F)F)N=C(c2ccccc2)O1)SC	inactive: 26.9 µM
Fc1ccc2c(c1)SC1Oc3ccccc3-c3c1c-2nn3-c1ccccc1 (stereo not drawn)	inactive: > 100 µM
COc1ccc(/C=C2/C(C)=NN(c3cccc(Cl)c3)/C2=N/c2nc3ccccc3s2)cc1	inactive: 22.5 µM
COc1cc(Br)cc2nc(-c3cccs3)oc12	inactive: > 100 µM
C=CCN1CCC(OC(=O)C(O)(C#CC)C2CCCC2)CC1 (stereo not drawn)	inactive: > 100 µM
CC(C)[Si](CC1=CCCCC12C(=O)N(COCC[Si](C)(C)C)c1ccccc12)(C(C)C)C(C)C (stereo not drawn)	inactive: > 100 µM
Cn1c(=O)nc2n(-c3cccc(F)c3)c3ccccc3nc-2c1=O	inactive: 28.3 µM
Cc1nc2ccccc2c(=O)n1NC(=O)c1ccccn1	inactive: > 100 µM
Nc1ncnc2c1ccn2CC#CCO	inactive: > 100 µM
Cc1ccc2ccccc2c1CSc1nc(N)nc2c1ncn2CC(C)C	inactive: 56.2 µM
NC(=O)c1[nH]nc(C2OC(CO)C(O)C2O)c1O (stereo not drawn)	inactive: 2.43 µM
COc1cccc(/C=C\c2ccc(O)cc2)c1	inactive: 28.8 µM
CC(C)CC(NC=O)C(=O)NC(Cc1ccccc1)NC(=O)CNC(=O)C(C)NC(=O)C(N)Cc1ccc(O)cc1 (stereo not drawn)	inactive: > 100 µM
O=C(O)CSCc1cccc2ccccc12	inactive: 65.8 µM

SMILES	GI50
O=C(NNC(=S)Nc1ccccc1)c1ccccc1Nc1ccccc1C(=O)NNC(=S)Nc1ccccc1	inactive: 21.5 µM
Cc1cc(C)n(C(=O)CSc2nc3ccc(I)cc3c(=O)n2Cc2ccccc2)n1	inactive: 38.1 µM
O=C(/C=C/c1ccc(O)cc1)c1cc(O)cc(O)c1	inactive: 16.4 µM
N#CC(C#N)=C1SCC(=O)CS1	inactive: > 100 µM
CN(Cc1cnc2nc(N)nc(N)c2n1)c1ccc(C(=O)N[C@@H](CCC(=O)O)C(=O)O)cc1 [METHOTREXATE]	active: 0.604 µM
COC(=O)C1C(=O)O[C@@H](c2ccc(OC)cc2OC)C1C(=O)OC (stereo partly drawn)	inactive: > 100 µM
CC(=O)NC1=C(C)C(=O)c2c(nc3n2CCC3OC(=O)c2ccccc2)C1=O (stereo not drawn)	inactive: 3.56 µM
CC(Oc1ccc2c(-c3ccc(Cl)cc3)cc(=O)oc2c1)C(=O)O (stereo not drawn)	inactive: > 100 µM
CC12CCC3(OCCO3)C(OC(=O)c3ccccc3)=C1CCC21OCCO1 (stereo not drawn)	inactive: > 100 µM
OCc1c[te]c(-c2ccccc2)c1	inactive: > 100 µM
O=CCC1CCCCC1	inactive: > 100 µM
CC(=O)NC1=C[C@@H]([C@H]2COC(C)(C)O2)OC1=O	inactive: > 100 µM
CC(=O)NNC1=NN(C(C)=O)C2(S1)C(=O)Nc1ccc(C)cc12 (stereo not drawn)	inactive: > 100 µM
CN1NC(c2ccc(Cl)cc2)=C(C#N)C(=O)CC1c1ccccc1 (stereo not drawn)	inactive: > 100 µM
O=[N+]([O-])c1ccc2c(c1)n1c(N3CCCC3)[n+]3ccccc3c1c1c3ccccn3c(N3CCCC3)[n+]21.[O-][Cl+3]([O-])([O-])[O-].[O-][Cl+3]([O-])([O-])[O-]	inactive: > 100 µM
Cc1ccc(C(=O)Nc2ccc(CP(=O)(O)O)cc2CP(=O)(O)O)cc1NC(=O)Nc1cc(C(=O)Nc2ccc(CP(=O)(O)O)cc2CP(=O)(O)O)ccc1C	inactive: > 100 µM
O=S(=O)(/C=C/CS(=O)(=O)c1ccccc1)c1ccccc1	inactive: 25.8 µM
C#Cc1cccc(Nc2ncnc3cc(OCCOC)c(OCCOC)cc23)c1 [ERLOTINIB HYDROCHLORIDE]	active: 0.0143 µM
COC1/C=C/C(C)C(C(C)C(OC)C(C)CCC(=O)C(C)C(C/C=C/N(C)C=O)OC)OC(=O)C=CC2OC2(C)CC(OC)C(OC)C2=CC(=O)O[C@@H](C(C)C(OC)CC(OC)/C=C/C(C)C(O)C1)[C@H]2O (stereo partly drawn)	active: 0.0142 µM
O=C1CSC(c2cccc([N+](=O)[O-])c2)N1c1ccc(-n2c(-c3ccccc3)nc3ccccc3c2=O)cc1 (stereo not drawn)	inactive: > 100 µM
COc1ccc(Oc2cccc(C3C4C(=O)N(c5ccc(C)c(Cl)c5)C(=O)C4ON3C(C(N)=O)c3ccccc3)c2)cc1 (stereo not drawn)	inactive: 15.5 µM
CC(c1ccccc1)C(O)S(=O)(=O)O (stereo not drawn)	inactive: > 100 µM

SMILES	GI50
CC(=O)[C@H]1[C@H](O)C[C@@]2(C)[C@@H]3CCc4cc(O)c(OC5OC(CO)C(O)C(O)C5O)cc4C3(C)C(=O)C[C@]12C (stereo partly drawn)	inactive: > 100 µM
Oc1nc2cc(Cl)ccc2nc1/C(=N\Nc1ccccc1)C(O)c1ccc(Cl)c(Cl)c1 (stereo not drawn)	inactive: > 100 µM
C=CC1ON(C)CCc2cc(OC)c(OC)cc21 (stereo not drawn)	inactive: > 100 µM
CC(C)(C)c1cc(C(=O)/C=C/c2ccc3c(c2)CCO3)cc(C(C)(C)C)c1O	inactive: 1.79 µM
CN(C)C(=S)/N=c1\ss/c(=N/c2ccccc2)n1C	inactive: > 100 µM
CC(=O)OCC1OC(OC2C(CSC3OC(COC(C)=O)C(OC(C)=O)C(OC(C)=O)C3OC(C)=O)OC(OC(C)=O)C(OC(C)=O)C2OC(C)=O)C(OC(C)=O)C(OC(C)=O)C1OC(C)=O (stereo not drawn)	inactive: > 100 µM
Cc1ccc2cc3c(ccc4ccccc43)c3c2c1CC3 [3-METHYLCHOLANTHRENE]	inactive: > 100 µM
Oc1ccc2c(c1)OCC1(O)Cc3cc(O)c(O)cc3C21 (stereo not drawn)	inactive: 29.9 µM
Cc1cc(-c2nc3ccccc3s2)ccc1NS(=O)(=O)O	inactive: > 34.4 µM
Cc1nc2c(sc3nc4c(cc32)CCC4)c(=O)o1	inactive: > 100 µM
COc1ccc(CSC2=C(C#N)C(=O)NC3(CCCCC3)S2)cc1	inactive: 56.8 µM
CSc1nc(NC(C)C)c2c(n1)Sc1nc3ccccc3n1N=C2	inactive: 4.12 µM
COc1cccc2c1C(=O)c1c(O)c3c(c(O)c1C2=O)C[C@@](O)(C(=O)CO)CC3OC1CC(NCCCC(OC(C)=O)OC(C)=O)C(O)C(C)O1 (stereo partly drawn)	active: 0.0035 µM
Nc1ccc(-c2ncc3cc(-c4cccc(-c5cc6cnc(-c7ccc(N)cc7)nc6c6ccccc56)c4)c4ccccc4c3n2)cc1	inactive: > 100 µM
CC1=C(C(=O)NCc2ccccc2)C(c2ccccc2O)C(C(=O)NCc2ccccc2)=C(C)N1	inactive: 18.3 µM
CCN(CC)CCCCC1CCN(CC(=O)N2CC(C)C(=O)Nc3ccccc32)CC1 (stereo not drawn)	inactive: > 100 µM
COc1cc(O)c2c(c1)C(=O)c1cc(C)cc(O)c1C2=O [PHYSCION]	inactive: > 100 µM
COc1ccc(NS(=O)(=O)c2ccc(/N=C3\C=C(Nc4ccc(S(=O)(=O)Nc5ccc(OC)nn5)cc4)C(=O)c4ccccc43)cc2)nn1	inactive: 17.8 µM
CCc1nc(N)nc(N)c1-c1ccc2c(c1)nnn2CCc1ccccc1	inactive: 18 µM
C=C(CO)CC(O)c1ccccc1 (stereo not drawn)	inactive: > 100 µM
COC(=O)C1=C(O)C(C(=O)OC)[C@@]2(O)[C@@H](C(=O)OC)C(c3ccc(OC(=O)/C=C/c4ccccc4)cc3)C[C@@H]1[C@@H]2C(=O)OC (stereo partly drawn)	inactive: 13.3 µM
COc1ccc(-c2[nH]c3ccccc3c2CCNS(=O)(=O)c2ccc(C)cc2)cc1	inactive: > 10 µM

SMILES	GI50
C=CCNC(=O)N(CCCCC(NC(C)=O)C(=O)NCc1ccccc1)Cc1ccccc1 (stereo not drawn)	inactive: > 100 µM
N#CC(Sc1ccccc1)C(N)=O (stereo not drawn)	inactive: > 100 µM
CC1(C)S[C@@H]2[C@H](N3C(=O)c4ccccc4C3=O)CN2[C@H]1NC(=O)N[C@@H]1N2C[C@@H](N3C(=O)c4ccccc4C3=O)[C@H]2SC1(C)C	inactive: > 100 µM
CCOC(=O)c1sc(=S)n(-c2ccc(Cl)cc2)c1-n1cc(-c2ccccc2)c(C#N)c1N	inactive: 45.7 µM
CC(=O)NCC1OC2COC(c3ccccc3)OC2C2N=C(c3ccccc3)OC12 (stereo not drawn)	inactive: 99.8 µM
CC(=O)C(=CNc1c(C)n(C)n(-c2ccccc2)c1=O)C(C)=O	inactive: > 100 µM
CN(C)NC(=S)NC12CC3CC(CC(C3)C1)C2	inactive: > 100 µM
COc1ccc2c(c1)Cc1cc(/N=[N+](\[O-])c3ccc4c(c3)Cc3cc(OC)ccc3-4)ccc1-2	inactive: > 100 µM
CC12CCC(=O)N1c1cnccc1N2 (stereo not drawn)	inactive: > 100 µM
Cc1ccc2c(c1C)CC1(Cc3ccc(C)c(C)c3C1=O)C2=O (stereo not drawn)	inactive: 19.5 µM
CCN(CC)CCN1C=CC(C)C(C(=O)O)C1C(N)=O (stereo not drawn)	inactive: > 100 µM
Oc1ccc(/C=N/c2ccccc2O)cc1	inactive: > 100 µM
CSC(CC(=O)O)C(=O)O (stereo not drawn)	inactive: > 100 µM
COc1cc([C@@H]2c3cc4c(cc3[C@@H](NC(=O)c3ccc(C(C)=O)cc3)C3COC(=O)[C@@H]32)OCO4)cc(OC)c1O (stereo partly drawn)	inactive: 3.74 µM
Cc1ccc(S(=O)(=O)N2CCSCCSCCSCCSCC2)cc1	inactive: 53.5 µM
O=S(=O)(/C=C/c1ccc(F)cc1)Cc1ccc(CS(=O)(=O)/C=C/c2ccc(F)cc2)cc1	inactive: > 100 µM
O=C1CCc2cc3c(cc21)CC1(Cc2ccccc2C1)C3	inactive: 31.8 µM
COC1/C=C\OC2(C)Oc3c(C)c(O)c4c(O)c(c(/C=N\OCCCc5ccccc5)c(O)c4c3C2=O)NC(=O)/C(C)=C\C=C/C(C)C(O)C(C)C(O)C(C)C(OC(C)=O)C1C (stereo not drawn)	inactive: 10.1 µM
Oc1ccc(O)c(-n2cccn2)c1	inactive: > 100 µM
O=C1C(Cl)C2(CC(/C=C/c3cccs3)=NN2c2cccc(S(=O)(=O)O)c2)N1c1nc2ccccc2s1 (stereo not drawn)	inactive: 83.6 µM
N#CC12C(=O)N=C(N)C1(C#N)C(c1ccco1)NC1=C2CCCC1 (stereo not drawn)	inactive: > 100 µM
CCOC(OCC)C(CC)[Se]c1ccccc1[N+](=O)[O-] (stereo not drawn)	inactive: 3.24 µM
